{
  "source": "PubChem BioAssay AID504832",
  "about": "(National Center for Advancing Translational Sciences (NCATS), 2011)",
  "note": "About 18,000 (5.8%) of roughly 310,000 compounds were called active. Inconclusive means that the source gave no clear call. Such entries were picked first, then a sample of the others. Calls follow the shape of the dose curve; as a rule, active = well fitted inhibition curve with a large enough effect; inconclusive = small, poorly fitted or top-dose-only effect, or another doubt; inactive = no such curve, though single readings can be large or run the other way. Potencies of inconclusive entries are left out as doubtful fits. % is scaled to controls: 0 for no effect and ±100 for the full control effect; potency is read from the fitted curve at half-maximal effect; tags tell the direction and shape of the fitted curve.",
  "data": [
    {"experiment": "Primary qHTS for delayed death inhibitors of the malarial parasite plastid, 48 hour incubation", "conditions": "P. falciparum luciferase growth in erythrocytes; series mostly up to 28.7 µM", "outline": "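Read-out is firefly luciferase luminescence from an integrated reporter in P. falciparum, so falling signal marks reduced parasite growth. Infected erythrocytes were at 2% hematocrit and 0.1% parasitemia (final) in Albumax-supplemented RPMI 1640.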", "values": [
      {"smiles": "Cc1cccc(-c2noc(CN(C(=O)c3ccc4c(c3)OCO4)C(C)C)n2)c1", "Potency": "inactive"},
      {"smiles": "O=[N+]([O-])c1cccc(S(=O)(=O)Nc2cccc(-c3ccc(N4CCCC4)nn3)c2)c1", "Potency": "inconclusive [inhibitor, single point]"},
      {"smiles": "COc1ccc(CNC(=O)CCc2c(C)nc3cc(-c4ccccc4OC)nn3c2C)cc1", "Potency": "inconclusive [inhibitor, partial curve]"},
      {"smiles": "COc1ccc(OC)c(NC(=O)c2cc(-c3c(C)cc(C)cc3O)n[nH]2)c1", "Potency": "inconclusive [inhibitor, partial curve, poor fit]"},
      {"smiles": "COc1ccc(S(=O)(=O)N2CCOC23CCN(S(=O)(=O)c2cccs2)CC3)cc1", "Potency": "inconclusive [inhibitor, single point]"},
      {"smiles": "CCNC(=O)c1cc2c(=O)n3cccc(C)c3nc2n(CCc2ccccc2)c1=N", "Potency": "active: 1.65 µM"},
      {"smiles": "CN1C(=O)CC(c2ccccc2)CC1=O", "Potency": "inconclusive [inhibitor, single point]"},
      {"smiles": "CC(C)CCn1c(COc2ccccc2)n[nH]c1=S", "activity change, negative = inhibition": "inactive: -16.8% [at 1.15 µM]"},
      {"smiles": "COc1ccc(NC(=O)Nc2cccnc2)c(OC)c1", "activity change, negative = inhibition": "inactive: -26.6% [at 5.75 µM]"},
      {"smiles": "COc1cnc(-c2ccccn2)nc1N(C)C", "Potency": "active: 4.15 µM"},
      {"smiles": "Cc1cc(C)c2cc(C(O)c3nnnn3Cc3ccccc3)c(=O)[nH]c2c1", "note": "(stereo unspecified)", "Potency": "inconclusive [inhibitor, full curve, poor fit]"},
      {"smiles": "Cc1[nH]n(-c2ccccc2)c(=O)c1/C=N/N(c1ccccc1)c1ccccc1", "Potency": "inconclusive [inhibitor, partial curve]"},
      {"smiles": "Cc1n[nH]c(C)c1Sc1ccccc1N", "Potency": "inconclusive [inhibitor, single point]"},
      {"smiles": "Cn1c(=O)c2sccc2n2c(CCCC(=O)NCCc3ccccc3)nnc12", "Potency": "inconclusive [inhibitor, partial curve, poor fit]"},
      {"smiles": "O=C1C2C3C=CC([C@@H]2C(=O)N1C1CC1)[C@H]1C(=O)N(C2CC2)C(=O)C31", "note": "(stereo partly specified)", "Potency": "inactive"},
      {"smiles": "CCOc1ccc(S(=O)(=O)Nc2ccc(C(=O)NCC3(N4CCCCC4)CCCCC3)cc2)cc1", "Potency": "active: 3.29 µM"},
      {"smiles": "COc1ccc(-c2csc(Nc3ccc(S(N)(=O)=O)cc3)n2)cc1OC", "Potency": "inconclusive [inhibitor, single point]"},
      {"smiles": "Cc1cccc(C(=O)N[C@H](C(=O)Nc2ncc(C)s2)C(C)C)c1", "Potency": "inconclusive [inhibitor, single point]"},
      {"smiles": "Nc1c(C(=O)OCC2CCCO2)c2nc3ccccc3nc2n1-c1ccc2c(c1)OCCO2", "note": "(stereo unspecified)", "Potency": "inconclusive [inhibitor, single point]"},
      {"smiles": "Cc1cc(C(=O)CSc2nnnn2-c2ccc(O)cc2)c(C)n1C", "Potency": "inactive"},
      {"smiles": "O=C(O)c1ccc(C2NCC(c3ccccc3Cl)c3c2[nH]c2ccccc32)cc1", "note": "(stereo unspecified)", "Potency": "inactive"},
      {"smiles": "CC1CCCN(c2ccc(F)cc2N)C1", "note": "(stereo unspecified)", "Potency": "inconclusive [inhibitor, partial curve, poor fit]"},
      {"smiles": "CCc1cccc(C)c1NC(=O)CN(C)Cc1ccc(Br)cc1", "Potency": "inconclusive [inhibitor, single point]"},
      {"smiles": "Cc1ccccc1OCCC(=O)Nc1ccccc1C(=O)NC1CC1", "Potency": "inconclusive [inhibitor, single point]"},
      {"smiles": "COc1ccccc1Oc1nc(-c2cccnc2)nc2ccccc12", "Potency": "inconclusive [inhibitor, partial curve, poor fit]"},
      {"smiles": "COc1cc(OC)cc(C(=O)N[C@H](C(=O)Nc2cccc(S(=O)(=O)N3CCCC3)c2)C(C)C)c1", "Potency": "inconclusive [inhibitor, partial curve, poor fit]"},
      {"smiles": "CC(C)(C#CC(=O)O)OOC(c1ccccc1)(c1ccccc1)c1ccccc1", "Potency": "active: 11.7 µM"},
      {"smiles": "CCCCc1cc(=O)oc2cc(C)cc(OC(C)C(=O)NCc3ccncc3)c12", "note": "(stereo unspecified)", "Potency": "inconclusive [inhibitor, single point]"},
      {"smiles": "CNC(=O)c1cc(Nc2nnc(-c3ccc(O)cc3)c3ccccc23)ccc1OC", "Potency": "inconclusive [inhibitor, single point]"},
      {"smiles": "Fc1ccc(-n2cc(-c3ccccc3)[n+]3c2SCC3)cc1", "Potency": "inconclusive [inhibitor, full curve]"},
      {"smiles": "COc1ccccc1NC(=O)Nc1nc(CC(=O)NCc2ccc(F)cc2)cs1", "Potency": "inconclusive [inhibitor, partial curve, poor fit]"},
      {"smiles": "Cc1ccc(NS(=O)(=O)c2cc(NC(=O)c3cc(=O)[nH]c(=O)[nH]3)ccc2Cl)c(C)c1", "Potency": "inconclusive [inhibitor, partial curve]"},
      {"smiles": "CCC(C)NC(=O)C1CCN(S(=O)(=O)c2ccc(Br)s2)CC1", "note": "(stereo unspecified)", "Potency": "inconclusive [inhibitor, partial curve, poor fit]"},
      {"smiles": "O=C(N/N=C/c1cccnc1)NC12CC3CC(CC(C3)C1)C2", "Potency": "inconclusive [inhibitor, single point]"},
      {"smiles": "Cc1cccc(NC(=S)Nc2ccc(Cl)c(Cl)c2)c1", "Potency": "inconclusive [inhibitor, single point]"},
      {"smiles": "CCOC(=O)c1c(-c2ccc(C)o2)csc1NC(=O)CSc1nnc(C)s1", "Potency": "active: 11.7 µM"},
      {"smiles": "Cn1c(-c2ccccc2O)cc2ccccc21", "Potency": "active: 3.7 µM"},
      {"smiles": "COc1ccc(/C=C/C(=O)c2cc(F)ccc2OC(=O)c2ccccc2OC)cc1OC", "Potency": "inconclusive [inhibitor, single point]"},
      {"smiles": "CCCCn1c(N)c(N(CC)C(=O)CSc2nnnn2-c2cc(C)ccc2C)c(=O)[nH]c1=O", "Potency": "inconclusive [inhibitor, single point]"},
      {"smiles": "CN(CC(=O)Nc1ccc(F)cc1)CC(=O)NC1CCCCC1", "Potency": "inconclusive [inhibitor, partial curve, poor fit]"},
      {"smiles": "Cc1[nH]c(C)c(S(=O)(=O)N2CCN(c3ccccc3F)CC2)c1C(=O)N1CCCCC1", "Potency": "inconclusive [inhibitor, partial curve]"},
      {"smiles": "Cc1ccc(C(=O)Nc2cccc(C(=O)N/N=C/c3ccccc3F)c2)cc1", "Potency": "inactive"},
      {"smiles": "Fc1cc(Br)ccc1NC(=S)NCCc1ccccc1", "Potency": "inactive"},
      {"smiles": "CCN(CC)C(=O)c1ccc(-c2nnc(Nc3ccc(C(=O)N(C)C)cc3)c3ccccc23)cc1", "Potency": "active: 5.86 µM"},
      {"smiles": "CC1CC(C)CN(S(=O)(=O)c2cccc(C(=O)OCCN3CCCC3=O)c2)C1", "note": "(stereo unspecified)", "Potency": "inconclusive [inhibitor, single point]"},
      {"smiles": "COc1cccc2sc(N(CCN(C)C)C(=O)c3ccc4c(c3)CCCC4)nc12", "Potency": "active: 10.4 µM"},
      {"smiles": "CCCCc1cc(=O)oc2cc(C)c(CN3CCCC3)c(O)c12", "Potency": "active: 4.15 µM"},
      {"smiles": "O=C(Nc1ccc(S(=O)(=O)N2CCCCC2)cc1)C1CC(=O)N(c2ccc(F)cc2)C1", "note": "(stereo unspecified)", "Potency": "active: 5.22 µM"},
      {"smiles": "COc1ccc(C(=O)Cn2c(NCCO)nc3ccccc32)cc1", "Potency": "inactive"},
      {"smiles": "CCOC(=O)Cc1csc(SC(C)C(=O)NC2CCCCC2C)n1", "note": "(stereo unspecified)", "Potency": "inconclusive [inhibitor, single point]"},
      {"smiles": "COc1ccccc1NS(=O)(=O)c1cccc(C(=O)N/N=C2\\CC(=O)CC(C)(C)C2)c1", "Potency": "active: 13.1 µM"},
      {"smiles": "CC(=O)c1ccc(OCC(=O)Nc2cccc(S(=O)(=O)N3CCCC3)c2)cc1", "Potency": "inconclusive [inhibitor, single point]"},
      {"smiles": "COc1cc(OC)cc(C(=O)Nc2nc3ccccc3[nH]2)c1", "Potency": "inconclusive [inhibitor, single point]"},
      {"smiles": "Cn1cc(CCC(=O)N2CCCC(CCC(=O)NCc3ccc(F)c(F)c3)C2)cn1", "note": "(stereo unspecified)", "Potency": "inconclusive [inhibitor, full curve, poor fit]"},
      {"smiles": "CN(C)N1C(N)=C(C#N)C(c2cccc([N+](=O)[O-])c2)C2=C1CC(C)(C)CC2=O", "note": "(stereo unspecified)", "Potency": "inconclusive [inhibitor, partial curve, poor fit]"},
      {"smiles": "CCN(CC)c1ccc(N=Cc2ccc([N+](=O)[O-])o2)cc1", "Potency": "active: 1.65 µM"},
      {"smiles": "COc1cccc(OCc2cc(C(=O)N3CCC(C(O)C(C)C)CC3)no2)c1", "note": "(stereo unspecified)", "Potency": "inconclusive [inhibitor, single point]"},
      {"smiles": "Cc1cccc(NC(=S)NCCc2ccccc2)c1C", "Potency": "inconclusive [inhibitor, single point]"},
      {"smiles": "COc1ccccc1-c1coc2c(CN3CCCC(C)C3)c(O)ccc2c1=O", "note": "(stereo unspecified)", "Potency": "inconclusive [inhibitor, partial curve, poor fit]"},
      {"smiles": "COc1cc(NC(=O)COC(=O)[C@@H]2CCCN2S(=O)(=O)c2ccc(Cl)cc2)cc(OC)c1OC", "Potency": "inconclusive [inhibitor, full curve, poor fit]"},
      {"smiles": "COc1cc(NC(=O)c2ccccc2)c(OC)cc1NC(=O)CN1CCCCC1", "Potency": "inconclusive [inhibitor, single point]"},
      {"smiles": "CCN(CC)C(=O)Oc1ccc2c(=O)c(-c3ccc(OC)cc3)coc2c1", "Potency": "inactive"},
      {"smiles": "O=C(COC(=O)c1ccc(CO)cc1)c1ccc(S(=O)(=O)N2CCCCC2)cc1", "Potency": "inconclusive [inhibitor, partial curve]"},
      {"smiles": "CC(=O)c1ccc(OCC(=O)c2ccc(-c3ccccc3)cc2)cc1", "Potency": "inactive"},
      {"smiles": "COc1ccc(-c2nc3ccccc3nc2-c2ccc(OC)cc2)cc1", "Potency": "inconclusive [inhibitor, partial curve]"},
      {"smiles": "NC(=O)C1CCN(CC(=O)NC(=O)NC2CCCC2)CC1", "Potency": "inconclusive [inhibitor, partial curve, poor fit]"}
    ]}
  ]
}
